According to the supplement of paper PMC10320760:
The data scatter; read single values as rough.

B1: Ydj1; a variant is named by its letters at X, in order (parent)
chain: MVKETKFYDILGVPVTATDVEIKKAYRKCALKYHPDKNPSEEAAEKFKEASAAYEILSDPEKRDIYDQFGEDGLSGAGGAGGFPGGGFGFGDDIFSQFFGAGGAQRPRGPQRGKDIKHEISASLEELYKGRTAKLALNKQILCKECEGRGGKKGAVKKCTSCNGQGIKFVTRQMGPMIQRFQTECDVCHGTGDIIDPKDRCKSCNGKKVENERKILEVHVEPGMKDGQRIVFKGEADQAPDVIPGDVVFIVSERPHKSFKRDGDDLVYEAEIDLLTAIAGGEFALEHVSGDWLKVGIVPGEVIAPGMRKVIEGKGMPIPKYGGYGNLIIKFTIKFPENHFTSEENLKKLEEILPPRIVPAIPKKATVDECVLADFDPAKYNRTRASRGGANYDSDEEEQGGEGVQCXXX

Variants of: B1
Experiment: enrichment factor, frequency at 37 °C / frequency at 25 °C (thermotolerance selection) (ratio); higher = more growth at 37 °C, higher likelihood of farnesylation
Settings: with Saccharomyces cerevisiae ydj1Δ (yWS304); selective temperature 37 °C; reference temperature 25 °C
Procedure: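 Pooled library of all 8,000 Ydj1-CXXX C-terminal motif variants (native CASQ replaced by C + three variable residues, one codon per amino acid) expressed from a CEN plasmid in S. cerevisiae ydj1Δ (yWS304). The library was grown in SC-Ura liquid to A600 ~2 (~8 generations) at permissive 25 °C or selective 37 °C. Reads from 8 and 7 replicates were pooled and variants counted by NGS. Enrichment factor = frequency at 37 °C / frequency at 25 °C, with a +1 correction; it reports Ydj1-dependent thermotolerance, used as a read-out of farnesylation by yeast FTase.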
With QNM the enrichment factor was 1.88. For QNK, the enrichment factor was 0.252. For QNH, the enrichment factor was 1.87. Variant QNI has an enrichment factor of 1.44. QNP was tested, and the enrichment factor was 0.111. In the case of QNL, the enrichment factor is reported as 0.617. For QNN, the enrichment factor was 2.1. Variant QNQ has an enrichment factor of 1.59. With FNK the enrichment factor was 0.117. In the case of FNL, the enrichment factor is reported as 1.3. FNQ showed an enrichment factor of 1.17. Variant FNR has an enrichment factor of 0.109. With FNN the enrichment factor was 1.56. With FNM the enrichment factor was 1.91. FNH gave an enrichment factor of 1.22. FNP was tested, and the enrichment factor was 1.3. FNI showed an enrichment factor of 1.05. Work on VNL yielded an enrichment factor of 1.83. VNI gave an enrichment factor of 1.78. VNN gave an enrichment factor of 1.2. VNK gave an enrichment factor of 0.154. With VNP the enrichment factor was 0.102. With VNQ the enrichment factor was 1.73. In the case of VNH, the enrichment factor is reported as 2.05. VNG gave an enrichment factor of 1.24. VNM was tested, and the enrichment factor was 1.79. Work on DNI yielded an enrichment factor of 0.118. Variant DNR has an enrichment factor of 0.0982. For DNH, the enrichment factor was 0.188. In the case of DNL, the enrichment factor is reported as 0.145. Variant DNM has an enrichment factor of 1.37. DNP was tested, and the enrichment factor was 0.165. In the case of DNQ, the enrichment factor is reported as 1.67. DNK was tested, and the enrichment factor was 0.182. With DNN the enrichment factor was 0.189. CNK was tested, and the enrichment factor was 0.114. With CNN the enrichment factor was 1.22. CNP gave an enrichment factor of 0.576. CNQ showed an enrichment factor of 1.05. For CNI, the enrichment factor was 0.158. CNM was tested, and the enrichment factor was 0.869. For CNL, the enrichment factor was 0.182. Work on CNH yielded an enrichment factor of 1.47. For ENR, the enrichment factor was 0.224. In the case of ENK, the enrichment factor is reported as 0.201. For ENH, the enrichment factor was 1.07. ENI was tested, and the enrichment factor was 0.819. ENQ gave an enrichment factor of 1.34. In the case of ENM, the enrichment factor is reported as 1.79. ENP was tested, and the enrichment factor was 0.138. ENL showed an enrichment factor of 0.39. Variant ENN has an enrichment factor of 0.725. MNK gave an enrichment factor of 0.185. Work on MNN yielded an enrichment factor of 1.19. In the case of MNH, the enrichment factor is reported as 1.53. Work on MNP yielded an enrichment factor of 0.205. Work on MNL yielded an enrichment factor of 0.608. MNI gave an enrichment factor of 0.59. MNQ was tested, and the enrichment factor was 1.57. MNM showed an enrichment factor of 1.17. WNN was tested, and the enrichment factor was 1.77. In the case of WNM, the enrichment factor is reported as 0.851. Variant WNP has an enrichment factor of 1.29. In the case of WNH, the enrichment factor is reported as 1.97. WNL gave an enrichment factor of 1.25. Work on WNK yielded an enrichment factor of 0.399. With WNG the enrichment factor was 1.16. With WNQ the enrichment factor was 1.12. For WNI, the enrichment factor was 2.09. In the case of RNK, the enrichment factor is reported as 0.0802. For RNN, the enrichment factor was 1.35. RNH was tested, and the enrichment factor was 1.46. RNI showed an enrichment factor of 1.15. RNP gave an enrichment factor of 0.144. RNQ showed an enrichment factor of 1.86. RNM gave an enrichment factor of 1.25. RNL was tested, and the enrichment factor was 0.573. GNK showed an enrichment factor of 0.11. GNM was tested, and the enrichment factor was 2.05. In the case of GNI, the enrichment factor is reported as 0.183. Work on GNQ yielded an enrichment factor of 1.18. GNR gave an enrichment factor of 0.0781. For GNN, the enrichment factor was 0.217. GNH showed an enrichment factor of 0.395. Variant GNP has an enrichment factor of 0.139. GNL gave an enrichment factor of 0.146. KNP gave an enrichment factor of 0.164. With KNQ the enrichment factor was 2.05. Work on KNK yielded an enrichment factor of 0.355. KNL was tested, and the enrichment factor was 0.331. KNM was tested, and the enrichment factor was 1.36. KNN was tested, and the enrichment factor was 1.75. With KNH the enrichment factor was 1.59. Variant KNI has an enrichment factor of 0.728. NNK was tested, and the enrichment factor was 0.242. NNL was tested, and the enrichment factor was 0.359. Variant NNP has an enrichment factor of 0.192. For NNI, the enrichment factor was 0.496. In the case of NNN, the enrichment factor is reported as 0.919. With NNM the enrichment factor was 1.47. NNQ was tested, and the enrichment factor was 1.6. NNH showed an enrichment factor of 1.81. For TNM, the enrichment factor was 1.84. Variant TNI has an enrichment factor of 1.43. With TNQ the enrichment factor was 1.68. For TNN, the enrichment factor was 1.51. TNP gave an enrichment factor of 0.203. TNK showed an enrichment factor of 0.119. TNL showed an enrichment factor of 0.966. TNH showed an enrichment factor of 1.58. HNK showed an enrichment factor of 0.191. For HNH, the enrichment factor was 1.62. Work on HNP yielded an enrichment factor of 0.332. HNM showed an enrichment factor of 1.38. HNN was tested, and the enrichment factor was 1.72. For HNL, the enrichment factor was 0.504. With HNI the enrichment factor was 0.851. Work on HNQ yielded an enrichment factor of 1.34. In the case of SNH, the enrichment factor is reported as 1.99. SNQ showed an enrichment factor of 1.41. With SNM the enrichment factor was 1.44. Variant SNL has an enrichment factor of 0.476. With SNK the enrichment factor was 0.221. Variant SNI has an enrichment factor of 0.769. SNN gave an enrichment factor of 1.85. In the case of SNP, the enrichment factor is reported as 0.172. Variant PNN has an enrichment factor of 1.77. Work on PNP yielded an enrichment factor of 0.155. PNL was tested, and the enrichment factor was 0.62. PNH was tested, and the enrichment factor was 1.78. PNM gave an enrichment factor of 1.54. In the case of PNK, the enrichment factor is reported as 0.133. With PNQ the enrichment factor was 1.49. Variant PNI has an enrichment factor of 1.08. YNI gave an enrichment factor of 0.731. For YNH, the enrichment factor was 1.87. With YNP the enrichment factor was 0.29. YNM was tested, and the enrichment factor was 2.03. Variant YNN has an enrichment factor of 2.11. YNQ gave an enrichment factor of 1.95. Variant YNG has an enrichment factor of 1.45. Work on YNL yielded an enrichment factor of 0.955. YNK gave an enrichment factor of 0.108. LNQ gave an enrichment factor of 1.48. LNL showed an enrichment factor of 1.02. In the case of LNK, the enrichment factor is reported as 0.222. LNH was tested, and the enrichment factor was 1.86. Work on LNI yielded an enrichment factor of 1.34. With LNM the enrichment factor was 1.11. LNP showed an enrichment factor of 0.179. LNN showed an enrichment factor of 1.32. INM gave an enrichment factor of 1.5. For INQ, the enrichment factor was 1.29. In the case of INP, the enrichment factor is reported as 0.182. With INN the enrichment factor was 0.956. Variant INK has an enrichment factor of 0.13. INL was tested, and the enrichment factor was 1.48. Work on INH yielded an enrichment factor of 1.52. INI showed an enrichment factor of 1.35. ANH gave an enrichment factor of 1.63. ANM showed an enrichment factor of 1.26. With ANK the enrichment factor was 0.243. ANI showed an enrichment factor of 1.38. ANQ was tested, and the enrichment factor was 1.61. ANP was tested, and the enrichment factor was 0.126. Variant ANN has an enrichment factor of 1.18. For ANL, the enrichment factor was 1.45.
